According to the antibiotic and cytotoxicity screens of Wong et al. (2023):
Some of the results follow.

Test system: HepG2
Experiment: cytotoxicity call (relative viability < 0.9)
Details: 10 µM

Structure (SMILES)	cytotoxicity call
COc1ccc(S(=O)(=O)Nc2cccc3c2O[C@H](CN(C)C(=O)Nc2c(C)noc2C)[C@H](C)CN([C@@H](C)CO)C3=O)cc1	inactive
CC[C@@H](C)[C@@H](NC)C(=O)O	inactive
Cc1cc(C)c(N(Cc2ccccc2)S(=O)(=O)c2ccc(OCCNC(=O)c3cc4ccccc4o3)cc2)c(C(=O)NO)c1	active
C[C@H]1CN([C@@H](C)CO)C(=O)Cc2cc(NC(=O)CCCN(C)C)ccc2O[C@@H]1CN(C)S(C)(=O)=O	inactive
C[C@H](NC(=O)C[C@@H]1CC[C@H](NC(=O)CN2CCOCC2)[C@H](CO)O1)c1ccccc1	inactive
C[C@@H]1CN([C@H](C)CO)C(=O)Cc2cc(NC(=O)c3ccncc3)ccc2O[C@H]1CN(C)S(C)(=O)=O	inactive
O=C(C[C@@H]1CC[C@H]2[C@@H](COC[C@H](O)CN2S(=O)(=O)c2ccccc2F)O1)NCc1ccccc1F	inactive
C[C@H]1CN([C@@H](C)CO)S(=O)(=O)c2ccc(C#CC(C)(C)O)cc2O[C@@H]1CN(C)Cc1ccncc1	inactive
CC(C)NC(=O)N(C)C[C@@H]1Oc2ccc(NS(=O)(=O)c3cn(C)cn3)cc2CC(=O)N([C@H](C)CO)C[C@@H]1C	inactive
CC(C)NC(=O)Nc1ccc2c(c1)C(=O)N([C@H](C)CO)C[C@@H](C)[C@@H](CN(C)S(=O)(=O)c1cccs1)O2	inactive
C[C@@H]1CCCCO[C@@H](CN(C)C(=O)C2CCCCC2)[C@H](C)CN([C@@H](C)CO)C(=O)c2cc(NS(=O)(=O)c3ccccc3)ccc2O1	active
O=C(C[C@@H]1CC[C@@H]2[C@H](COC[C@H](O)CN2C(=O)c2ccncc2)O1)NCc1ccc(-c2ccccc2)cc1	inactive
CC(C)NC(=O)N(C)C[C@@H]1Oc2ccc(NS(=O)(=O)c3cn(C)cn3)cc2C(=O)N([C@@H](C)CO)C[C@@H]1C	inactive
CN1CC(=O)Nc2ccc([N+](=O)[O-])cc2C1=O	inactive
CC12CCC(O)CC1=CCC1C2CCC2(C)C(c3cccnc3)=CCC12 (stereo unspecified)	inactive
C[C@@H]1CCCCO[C@@H](CN(C)C(=O)Nc2ccc3c(c2)OCO3)[C@@H](C)CN([C@H](C)CO)C(=O)c2cc(NS(=O)(=O)c3cccs3)ccc2O1	inactive
